Reference: the supplement of paper PMC4967469
The IC50 comes from the fitted curve, where viability falls to half of the control; where the fit passes the top or lowest dose, that dose stands as a limit. AUC, from the same fit, is the share of area under the viability curve across the 256-fold dose range; values near 1 show little effect. Any top dose called inferred is not printed in the source and was worked back from the curve model.

Compound: CCCCCCCCCCCC1=C(O)C(=O)C=C(O)C1=O [Embelin]
Test: Viability of human cancer cell lines after 72 h of drug (GDSC screen)
Details: top dose 32 µM; top dose inferred
Method: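 Human cancer cell lines in 384-well plates, medium with 10% serum, drug for 72 h over a 256-fold dose range (nine 2-fold or five 4-fold steps up to the top dose). Adherent lines were fixed and stained with the nucleic acid dye Syto60, suspension lines read with resazurin; signal relative to control wells, capped at 0 and 100%. One two-parameter sigmoid per drug and line, fitted in a mixed model over all curves with the slope shared within a line.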

Row | Cell Line | AUC | IC50
1 | RO82-W-1 (thyroid, adherent) | 0.886 | > 32 µM
2 | L-1236 (Hodgkin lymphoma, suspension) | 0.931 | > 32 µM
3 | IM-9 (myeloma, suspension) | 0.96 | > 32 µM
4 | LB1047-RCC (kidney, adherent) | 0.691 | 7.4 µM
5 | L-540 (Hodgkin lymphoma, suspension) | 0.672 | 5.69 µM
6 | RERF-LC-KJ (lung adenocarcinoma, adherent) | 0.717 | 8.42 µM
7 | HOP-62 (lung adenocarcinoma, adherent) | 0.648 | 5.12 µM
8 | CCF-STTG1 (glioma, adherent) | 0.808 | 16.7 µM
9 | G-361 (melanoma, adherent) | 0.685 | 6.44 µM
10 | Hs-445 (Hodgkin lymphoma, suspension) | 0.807 | 14.9 µM
11 | LB996-RCC (kidney, adherent) | 0.798 | 18.1 µM
12 | MOG-G-UVW (glioma, adherent) | 0.759 | 10.9 µM
13 | SW1573 (lung adenocarcinoma, adherent) | 0.879 | > 32 µM
14 | TMK-1 (stomach, adherent) | 0.838 | 23.5 µM
15 | EM-2 (chronic myeloid leukaemia, suspension) | 0.872 | > 32 µM
16 | RMG-I (ovary, adherent) | 0.749 | 11.9 µM
17 | PCI-30 (head and neck, adherent) | 0.902 | > 32 µM
18 | COLO-680N (oesophagus, adherent) | 0.819 | 22.7 µM
19 | KU-19-19 (bladder, adherent) | 0.865 | 28.2 µM
20 | MZ1-PC (pancreas, adherent) | 0.675 | 6.96 µM
21 | COR-L105 (lung adenocarcinoma, adherent) | 0.754 | 13 µM
22 | KP-4 (pancreas, adherent) | 0.787 | 13.4 µM
23 | NB5 (neuroblastoma, adherent) | 0.856 | 26.4 µM
24 | ATN-1 (T-cell lymphoblastic leukaemia, suspension) | 0.869 | 26.4 µM
25 | EJM (lymphoid neoplasm, semi-adherent) | 0.959 | > 32 µM

Row | Cell Line | AUC | IC50
26 | MONO-MAC-6 (acute myeloid leukaemia, suspension) | 0.813 | 18.6 µM
27 | HT-29 (large intestine, adherent) | 0.753 | 10.7 µM
28 | MOLT-4 (lymphoblastic leukaemia, suspension) | 0.754 | 9 µM
29 | COLO-792 (melanoma, adherent) | 0.866 | 27.9 µM
30 | VA-ES-BJ (soft tissue, adherent) | 0.749 | 10.9 µM
31 | SIG-M5 (acute myeloid leukaemia, suspension) | 0.432 | 1.37 µM
32 | MKN1 (stomach, adherent) | 0.796 | 15.9 µM
33 | RPMI-6666 (Hodgkin lymphoma, suspension) | 0.725 | 10 µM
34 | KALS-1 (glioma, adherent) | 0.787 | 19.9 µM
35 | NCI-H64 (small cell lung carcinoma, suspension) | 0.958 | > 32 µM
36 | OAW-42 (ovary, adherent) | 0.789 | 15.4 µM
37 | PCI-4B (head and neck, adherent) | 0.743 | 9.48 µM
38 | TC-71 (Ewing sarcoma, adherent) | 0.972 | > 32 µM
39 | IA-LM (large cell lung carcinoma, adherent) | 0.531 | 2.46 µM
40 | HSC-3 (head and neck, adherent) | 0.813 | 14.3 µM
41 | SJRH30 (rhabdomyosarcoma, adherent) | 0.728 | 9.13 µM
42 | MEL-JUSO (melanoma, adherent) | 0.723 | 9.37 µM
43 | SK-LMS-1 (soft tissue, adherent) | 0.681 | 6.22 µM
44 | DOHH-2 (B-cell lymphoma, suspension) | 0.72 | 8.25 µM
45 | CAL-54 (kidney, adherent) | 0.791 | 16.7 µM
46 | NCI-H526 (small cell lung carcinoma, suspension) | 0.894 | > 32 µM
47 | VMRC-MELG (melanoma, adherent) | 0.878 | > 32 µM
48 | NB69 (neuroblastoma, adherent) | 0.894 | 31 µM
49 | U-87-MG (glioma, adherent) | 0.877 | > 32 µM
50 | SH-4 (melanoma, adherent) | 0.754 | 16.8 µM

Row | Cell Line | AUC | IC50
51 | MIA-PaCa-2 (pancreas, adherent) | 0.648 | 5.35 µM
52 | NK-92MI (lymphoid neoplasm, suspension) | 0.725 | 8.26 µM
53 | HCC1937 (breast, adherent) | 0.751 | 12 µM
54 | H2795 (mesothelioma, adherent) | 0.66 | 5.53 µM
55 | KINGS-1 (glioma, adherent) | 0.922 | > 32 µM
56 | PL-21 (acute myeloid leukaemia, suspension) | 0.877 | > 32 µM
57 | NCI-H23 (lung adenocarcinoma, adherent) | 0.94 | > 32 µM
58 | H513 (mesothelioma, semi-adherent) | 0.927 | > 32 µM
59 | ES6 (Ewing sarcoma, adherent) | 0.75 | 12.7 µM
60 | CHP-126 (neuroblastoma, suspension) | 0.891 | > 32 µM
61 | LS-1034 (large intestine, adherent) | 0.894 | > 32 µM
62 | KG-1 (acute myeloid leukaemia, suspension) | 0.907 | > 32 µM
63 | HL-60 (acute myeloid leukaemia, suspension) | 0.71 | 7.29 µM
64 | KY821 (leukaemia, suspension) | 0.958 | > 32 µM
65 | KARPAS-422 (B-cell lymphoma, suspension) | 0.825 | 18.8 µM
66 | MFE-319 (endometrium, adherent) | 0.659 | 5.45 µM
67 | QIMR-WIL (acute myeloid leukaemia, suspension) | 0.629 | 4.48 µM
68 | Hs683 (glioma, adherent) | 0.706 | 7.67 µM
69 | DJM-1 (skin, adherent) | 0.739 | 9.56 µM
70 | HOP-92 (large cell lung carcinoma, adherent) | 0.714 | 8.98 µM
71 | COR-L23 (large cell lung carcinoma, adherent) | 0.759 | 10.9 µM
72 | NCI-H345 (small cell lung carcinoma, suspension) | 0.973 | > 32 µM
73 | SK-PN-DW (Ewing sarcoma, adherent) | 0.889 | > 32 µM
74 | PF-382 (T-cell lymphoblastic leukaemia, suspension) | 0.693 | 6.42 µM
75 | HEC-1 (endometrium, adherent) | 0.788 | 13.5 µM

Row | Cell Line | AUC | IC50
76 | NALM-6 (B-cell leukaemia, suspension) | 0.599 | 3.57 µM
77 | NCI-H1048 (small cell lung carcinoma, adherent) | 0.772 | 11.2 µM
78 | KP-N-YN (neuroblastoma, adherent) | 0.904 | > 32 µM
79 | CA46 (Burkitt lymphoma, suspension) | 0.798 | 16.5 µM
80 | NCI-H1581 (large cell lung carcinoma, semi-adherent) | 0.911 | > 32 µM
81 | NCI-H1734 (lung adenocarcinoma, adherent) | 0.811 | 19.2 µM
82 | MPP-89 (mesothelioma, adherent) | 0.841 | > 32 µM
83 | KYSE-510 (oesophagus, adherent) | 0.7 | 6.51 µM
84 | NCI-H196 (small cell lung carcinoma, adherent) | 0.815 | 18.6 µM
85 | ABC-1 (lung adenocarcinoma, adherent) | 0.87 | > 32 µM
86 | KELLY (neuroblastoma, adherent) | 0.733 | 8.56 µM
87 | ES8 (Ewing sarcoma, adherent) | 0.761 | 10.5 µM
88 | HCC2157 (breast, suspension) | 0.894 | > 32 µM
89 | LB2241-RCC (kidney, adherent) | 0.79 | 16.1 µM
90 | SW756 (cervix, adherent) | 0.781 | 16 µM
91 | STS-0421 (soft tissue, adherent) | 0.922 | > 32 µM
92 | LS-123 (large intestine, adherent) | 0.74 | 12.5 µM
93 | GR-ST (lymphoblastic leukaemia, suspension) | 0.687 | 7.51 µM
94 | H290 (mesothelioma, adherent) | 0.698 | 6.81 µM
95 | FU97 (stomach, adherent) | 0.698 | 7.33 µM
96 | NCI-H661 (large cell lung carcinoma, adherent) | 0.814 | 22.2 µM
97 | KURAMOCHI (ovary, adherent) | 0.68 | 6.92 µM
98 | NCI-H1666 (lung adenocarcinoma, semi-adherent) | 0.931 | > 32 µM
99 | HuO9 (osteosarcoma, adherent) | 0.866 | > 32 µM
